Most values come without repeats; read them as rough.
Legend:
[1] = tested on: SUDHL6 venetoclax-resistant; experiment: estimated IC50 (cell viability); higher = less potent
SUDHL6 parental = experiment: as above
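Note: compound screen comparing venetoclax-resistant SUDHL6, derived by months of escalating venetoclax exposure, with its matched parental line, IC50 from one-site nonlinear dose–response fit, geometric mean for duplicated compounds.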

SMILES | estimated IC50 [1] [µM] | estimated IC50 (SUDHL6 parental) [µM]
COc1ccc(-c2cc3c(C)nc(N)nc3n([C@H]3CC[C@H](OCCO)CC3)c2=O)cn1 | 0.07 | 0.48
COc1ccc(CC(=O)Nc2nc3c(s2)CCc2ccccc2-3)cc1OC | 3.75 | 7.46
COc1ncc(-c2ccc3nccc(-c4ccnnc4)c3c2)cc1NS(=O)(=O)c1ccc(F)cc1F | 0.005 | 0.041
CS(=O)(=O)N1CCN(C(=O)CNC(=O)/C=C/c2ccc(Cl)c(Cl)c2)CC1 | 0.02 | 0.16
C[C@@H](C(=O)Nc1ccc(Cl)cc1)C1CCC(c2ccnc3ccc(F)cc23)CC1 (stereo partly drawn) | 1.52 | 6.51
Cc1[nH]nc2ccc(-c3cncc(OC[C@@H](N)Cc4ccccc4)c3)cc12 | 1.89 | 3.13
Cc1cc(N2CCOCC2)ccc1Nc1nc(NC2CCCCC2)c2[nH]cnc2n1 | 2.62 | 5.2
Cc1cc(Nc2cc(CN3CCOCC3)c3nc(C)c(Cc4ccc(Cl)cc4F)n3n2)n[nH]1 | 5.01 | 8.74
Cc1ccc(C(=O)N(CCCN)[C@@H](c2nc3cc(Cl)ccc3c(=O)n2Cc2ccccc2)C(C)C)cc1 | 0.04 | 0.07
Cc1ccc(C(=O)Nc2ccc(CN3CCN(C)CC3)c(C(F)(F)F)c2)cc1C#Cc1cnc2cccnn12 | 1.33 | 6.95
Cc1cccc(CC(=O)N2CCc3c2ccc(-c2cn(C)c4ncnc(N)c24)c3F)n1 | 5.2 | 8.3
Cc1cccc(Nc2nc(NC3CCCCC3N)ncc2C(N)=O)c1 (stereo not drawn) | 4.35 | 8.76
Cc1cnc(Nc2ccc(N3CCN(C)CC3)cc2)nc1Nc1cccc(S(=O)(=O)NC(C)(C)C)c1 | 3.5 | 6.8
Cc1cnc(Nc2ccc(OCCN3CCCC3)cc2)nc1Nc1cccc(S(=O)(=O)NC(C)(C)C)c1 | 4 | 7.6
Cc1nc2ccc(-n3ncc(C(=O)c4cc5ccccc5[nH]4)c3N)cc2[nH]1 | 6.54 | > 10
Cc1noc(C)c1-c1ccc2[nH]c(=O)n3c2c1OC[C@@H]3c1ccccn1 | 0.84 | 1.83
Cn1cc(-c2cc(S(C)(=O)=O)ccc2OCC2CC2)c2ccccc2c1=O | 1.25 | 2.23
N#Cc1ccc(-c2c(-c3ncn[nH]3)sc(N3CCOCC3)c2C#N)c(F)c1 | 1.47 | 4.52
NC(=O)c1ccccc1Nc1ccnc(Nc2cccc(O)c2)n1 | 3.95 | 6.69
NC(=O)c1cnc(N[C@@H]2CCCC[C@@H]2N)nc1Nc1cccc(-n2nccn2)c1 | 3.83 | 7.43
Nc1nc(Nc2ccc(S(N)(=O)=O)cc2)nn1C(=O)c1c(F)cccc1F | 3.45 | 6.04
O=C(NCCN1CCOCC1)Nc1ccc(C(=O)/C=C/c2cccc(N3CCOCC3)n2)cc1 | 2.01 | 3.59
O=C(c1ccccc1)c1ccc2nc(NC(=O)c3csc(C4CCN(c5ncnc6ccsc56)CC4)n3)[nH]c2c1 | 5.65 | 9.62
O=c1cc(-c2cccc3c2Sc2ccccc2S3)oc(N2CCOCC2)c1 | 2.55 | 7.9
O=c1cc(N2CCNCC2)oc2c(-c3ccccc3)cccc12 | 4.08 | > 10
c1cc(-c2cnn3cc(-c4ccc(N5CCNCC5)cc4)cnc23)c2cccnc2c1 | 0.37 | 1.2
O=C(NCc1ccc(S(=O)(=O)c2cc(F)cc(F)c2)cc1)c1ccc2nccn2c1 [GNE-617] |  | 0.002

Reference: the supplement of paper PMC11171410
